# This is one part of the list. At the low end of the ranking, values are background and their order means little.
# Test system: T1, GST-NbGlk1(82-244)
# T1 sequence: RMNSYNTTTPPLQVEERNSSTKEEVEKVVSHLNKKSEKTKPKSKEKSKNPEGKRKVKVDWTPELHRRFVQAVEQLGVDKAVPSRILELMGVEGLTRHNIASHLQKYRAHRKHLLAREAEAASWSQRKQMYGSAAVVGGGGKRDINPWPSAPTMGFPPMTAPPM
# Assay: protein-binding microarray;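 also: rank-based score ranging −0.5 to +0.5 with E above 0.45 taken as significant binding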
# Conditions: NbGlk1 is a Golden2-like transcription factor of Nicotiana benthamiana; high values mean tight binding; most listed sequences are background and not binding sites; double strand, one strand shown
row,Sequence,binding signal [E-score]
1,AGGGGGTG,-0.17
2,AGTCATGC,-0.219
3,AGAATCAT,0.359
4,ATTCGCGC,0.2
5,ATGCTAGC,-0.0697
6,ACGCAGTC,-0.146
7,AACCAACA,0.0383
8,AAACAGTC,-0.136
9,ACCACGCG,0.016
10,ATCAACAA,0.119
11,ATCCCAGC,0.111
12,AAGCCTAA,-0.217
13,ACTTGCCG,-0.149
14,ATAGGCCC,-0.255
15,ATGTGAAC,0.084
16,ATACGAAC,0.16
17,ACTCGGTA,-0.00811
18,AAGAAGCA,-0.13
19,CACGCTAG,-0.0942
20,AGGCTTTC,-0.0922
21,ATAACTAC,-0.0567
22,ATGGATAA,0.173
23,AGTTCAAA,0.0405
24,CAAGTCGC,-0.206
25,ATTCCACA,0.143

row,Sequence,binding signal [E-score]
1,AAGCCCTT,-0.297
2,AACTTGGT,-0.123
3,ACCTTAAA,-0.0171
4,ATTCTCAG,0.32
5,ACGTTTGC,-0.0926
6,ACGTAACT,0.00351
7,AGGTGTGG,-0.000122
8,ATCGATGA,0.123
9,AGTGCGTG,-0.0453
10,ACGTGGGG,-0.119
11,CAAAGGCA,-0.245
12,ACCAGACT,-0.207
13,AATAGTAG,0.065
14,ACCCATCA,-0.0452
15,CACGTCTG,-0.122
16,CACCATGG,-0.298
17,AAGCGGAC,-0.12
18,AGTCACGA,0.0268
19,ACGGTATA,-0.00374
20,ATTCGCCG,0.263
21,CAAGCGTC,-0.238
22,ATATAGAA,0.254
23,AGTGGCCG,-0.154
24,AACTAAGA,0.0111
25,AATAATCT,0.276

row,Sequence,binding signal [E-score]
1,AAAACGAA,0.124
2,ATAAGTAG,0.00496
3,ACGACAAA,-0.00994
4,ATCGATGC,0.0291
5,CACGCCAC,-0.0983
6,ATTTTCAG,0.282
7,ACAGTCGT,-0.227
8,ACAGGGTA,0.00875
9,ATACGAAT,0.352
10,AGCGCGTG,0.011
11,ATAACTAG,0.0239
12,ATACTCGA,0.15
13,AGACAGCA,-0.13
14,ATATAAAC,0.155
15,AGATCAGC,-0.0166
16,AATGCATG,-0.0947
17,ATCGAAGA,0.181
18,AATCTGGG,0.428
19,ATTCTTCG,0.147
20,ACATGCAC,-0.0351
21,ATCAAATA,0.183
22,ATTGATTC,0.289
23,AACACTGG,-0.133
24,AGATATAC,0.241
25,AGATTATG,0.35

row,Sequence,binding signal [E-score]
1,ACTAAGCG,-0.155
2,ATAAAACG,0.0917
3,AAGCTCGT,-0.109
4,ATATATCG,0.276
5,CAACTTGA,-0.0684
6,AAATAAAG,0.202
7,CACATACC,-0.105
8,ATAGCAAA,0.106
9,ACGGTATG,-0.226
10,CAAGTACC,-0.257
11,AGGGCAGC,-0.282
12,CAGCAGCC,-0.185
13,AGAGCCGC,-0.377
14,ATCTAATC,0.331
15,AAGATTGT,0.297
16,AGAAACAC,-0.0309
17,ATCTTCGC,0.237
18,AATGTATC,0.0583
19,AAGTTCGA,0.0391
20,AGGCGGGG,-0.187
21,AGTCGGTA,-0.074
22,AGACATGA,-0.0158
23,AGCGCGGA,0.0497
24,AATATAAG,0.143
25,ATTTCAGA,0.265

row,Sequence,binding signal [E-score]
1,ATAGCAAC,-0.0191
2,AAAAAACC,0.0412
3,AGAACTAT,-0.059
4,AATTACGC,0.195
5,ATTCACAC,0.132
6,ACCTCAAT,0.029
7,ATGCTTGC,-0.16
8,ACGCTTGA,0.0268
9,AACTTATA,0.106
10,AACACGAA,0.118
11,AACAACTC,-0.0157
12,CACACGGC,-0.218
13,AAATGGTA,0.0758
14,AAAGATTG,0.335
15,AGTTTAAT,-0.00225
16,AAGGCACG,-0.29
17,AACGTACG,-0.104
18,ATAGACAT,0.0432
19,ATCGTGCA,0.128
20,AGCATGAG,-0.215
21,AACGATAA,0.119
22,CACCTGGA,-0.129
23,CAAACCAA,0.0941
24,ACGGTGAG,-0.122
25,ACTCACGG,0.0204

row,Sequence,binding signal [E-score]
1,AATTGAGT,-0.0253
2,AGGTCGTG,-0.13
3,ACTTTACA,0.0432
4,AGACTTGC,-0.186
5,CACCGCAC,0.0411
6,ATAGGATG,-0.0678
7,AGAGTCTG,-0.18
8,AAGTGTTA,-0.00912
9,ACTAAGTA,-0.00376
10,AGGCTGAA,-0.276
11,AATAATCG,0.162
12,ATTATCAG,0.197
13,ACTAATTA,0.112
14,AGTAGTGC,-0.117
15,AGTCCTAC,-0.179
16,CACCATCC,-0.111
17,ATAAAGCC,-0.16
18,AGAAACAG,-0.00113
19,ACCCAGCA,-0.257
20,ATTCAGAA,0.099
21,ATCGCCCC,0.191
22,ACAACCAC,-0.115
23,ACTAATCC,-0.00427
24,ACGGCACA,0.0429
25,CACCCTCA,-0.0729

row,Sequence,binding signal [E-score]
1,ACTGAGTG,-0.0461
2,ATCGACAC,0.0325
3,CACTCGGC,-0.204
4,CAAAGTAG,-0.114
5,ACTTGACC,-0.0993
6,AGGACCCG,-0.288
7,AGATACGG,0.372
8,AGCCGCAT,-0.176
9,ACGCTCGA,-0.0402
10,AAGCAAAT,0.207
11,AATCGTCC,0.248
12,ACGTCTCT,-0.161
13,AGCTAGTG,-0.1
14,AATTGGTA,0.0772
15,ACATCGAT,0.241
16,AAGGCTGC,-0.183
17,AATCCGCC,0.372
18,AATTACGT,0.26
19,AGCTACGA,-0.0607
20,ATTGTTTA,0.0143
21,ACGCAAAC,-0.0569
22,ATCCCCTC,0.158
23,AACCGGTG,-0.281
24,AAGGAATG,-0.053
25,AAAAGTCG,0.11

row,Sequence,binding signal [E-score]
1,AATAAATC,0.253
2,ATTAAGGC,-0.0256
3,AGGATATA,0.211
4,CAAGATCC,0.33
5,AGGCTGGC,-0.226
6,AAGCCTTC,-0.285
7,AACTTAAT,-0.0539
8,AATGCTAG,-0.0722
9,ATTACGTA,0.354
10,ACCGGCAT,-0.0583
11,CACCTCTG,-0.142
12,AATTATAA,0.243
13,AAATGGCC,-0.224
14,ACTGATGC,-0.0669
15,ACTAAGGA,-0.0523
16,AGTTCGCA,-0.0679
17,ATTGGAGG,-0.128
18,AGCCGGAG,-0.306
19,AACAGAAT,0.301
20,ATTTGTTC,0.112
21,ACAACCAA,0.0747
22,AAACTGTC,-0.122
23,ATTTATGA,0.182
24,AGCGGGGA,0.00918
25,CAATTTAA,0.0461

row,Sequence,binding signal [E-score]
1,AGTGCCTC,-0.298
2,AACCAGCC,-0.113
3,ATCGCATA,0.272
4,AAGAGAAT,0.321
5,ACTCGTGG,-0.0478
6,ATGGTGCA,0.00205
7,ATATGCAA,0.29
8,AGTTAATG,-0.0381
9,AGAAGGTC,-0.284
10,AGTGGACC,-0.083
11,AGGTGCCG,-0.249
12,ACCTCCAT,-0.0569
13,ACACGAGC,-0.0756
14,AGCCGGTC,-0.29
15,ACATGACT,-0.0456
16,ACCTAAGA,-0.106
17,ACACAGCA,0.00236
18,AGGAACGG,-0.0555
19,AGGCGGAG,-0.214
20,AGCCGTCG,-0.286
21,AAGAGAGG,-0.197
22,AATCTCGT,0.436
23,ACTCGGGG,-0.056
24,ACCCTAAG,-0.152
25,ACAGGACG,-0.177

row,Sequence,binding signal [E-score]
1,ATGTCTCA,0.067
2,AGCGCGCT,0.0892
3,AACAGCAT,0.0551
4,AAATCAGG,0.365
5,AGTCCGGA,-0.0362
6,AGCATCAT,0.092
7,AACGGGGC,-0.0659
8,ACTTCTCC,-0.0954
9,AGGCTCTG,-0.0622
10,ATGTGTTG,0.00462
11,ATGCTAAT,0.121
12,ACGATACA,0.01
13,ACATCCCA,-0.000568
14,CACCTGTC,-0.206
15,AGTCTGTA,0.0388
16,ACTCACAC,-0.175
17,ACTGTACT,-0.136
18,AGGGTGGA,-0.0254
19,ATGTGGCG,-0.107
20,CAAGAGGC,-0.282
21,AAGATCGA,0.225
22,ATCCAACG,0.172
23,ACCATAGC,-0.12
24,ACCAATAA,0.000427
25,CAAATTTG,0.18

row,Sequence,binding signal [E-score]
1,ACTCAACC,-0.0527
2,ACTTAGCA,-0.0836
3,AACGCTTG,0.0185
4,AGGGAACA,-0.115
5,ATCTACGC,0.241
6,AAGGGTAG,-0.212
7,ACGCACCG,-0.0837
8,CAAGGGCC,-0.281
9,AGGTCAGA,-0.129
10,AACCAATC,0.122
11,CACGAGAC,-0.0715
12,AGAGCTAT,-0.0467
13,AGCTAGCC,-0.231
14,AAATTAGA,0.195
15,AGGGCATA,-0.121
16,AAAACGTC,-0.00404
17,ATATGGCG,0.123
18,CAAGTCCG,-0.132
19,ACACATGT,-0.22
20,AAAATTGG,0.0756
21,AATTGACT,-0.16
22,ACTGACCG,-0.219
23,AAGAATAG,-0.077
24,ACGAATCT,0.403
25,AATCCGCA,0.395

row,Sequence,binding signal [E-score]
1,AAACACTC,-0.146
2,AAGATTAC,0.454
3,AAGGCATT,-0.114
4,ACTTGTAT,0.0481
5,AGTGGGTC,-0.348
6,ATGCAGAG,-0.0248
7,ACGCTCCG,-0.0827
8,AAGAGATA,0.309
9,AACACAAA,0.0878
10,AGGGGCCA,-0.233
11,AATCGTCA,0.228
12,AGTAGTAA,0.167
13,AAACCCAG,-0.0184
14,AGACTATG,-0.0479
15,ATGGGGCG,-0.136
16,CAAGTAGC,-0.173
17,AAACTTTG,-0.00575
18,AATCTCTG,0.374
19,AGGGAACC,-0.278
20,AAAGATCA,0.157
21,AGAAGGAA,-0.0248
22,AGCCCCAG,-0.229
23,AATTTCGC,0.195
24,CAACAGTG,-0.125
25,AATGCTAA,0.13

row,Sequence,binding signal [E-score]
1,ACCAGGTC,-0.366
2,AGGGCCAA,-0.248
3,CAAGAGTA,-0.0182
4,AGTCTGTC,-0.222
5,AGTAACCA,0.0637
6,ATGTAGTA,0.223
7,AAGCTGAA,-0.219
8,CAAACTCA,0.0525
9,ACCGTCAA,-0.267
10,ATCCGTCG,0.181
11,AGAGGCGC,-0.325
12,AAAGTGGT,-0.00884
13,AGTTCGTG,-0.139
14,AAACTAGA,0.166
15,AGACAGAT,0.222
16,CAAAGAAC,0.0614
17,ACCAACCT,-0.0513
18,AAAGAGTA,0.0369
19,ACCTTAGT,-0.068
20,AGCAGTTG,0.0451
21,CACTCCGG,-0.209
22,AACCCTTG,-0.159
23,AGCGCTTA,-0.211
24,AAGAAATG,-0.069
25,ACGTAGGA,-0.0304

row,Sequence,binding signal [E-score]
1,AACTGGAT,0.173
2,AGTGCGGC,-0.259
3,ATAAGGTA,0.0501
4,CAGATCCC,0.266
5,AAATGCCG,0.0595
6,AATGAACG,-0.111
7,CACGACCG,-0.093
8,AAGTTTGA,0.129
9,CACCGATC,0.0752
10,ACACCATG,-0.0506
11,ATGTGATC,0.226
12,CACTCAAG,0.0504
13,ACCGTAAA,-0.0262
14,ACTCAGGA,-0.00097
15,AAGCCGGA,-0.173
16,AACCCACT,-0.276
17,ACTCGCCT,-0.16
18,ACCGCGAC,-0.156
19,ACACGGCC,-0.186

# From PMC5836133
